Among all 420,000 compounds or so, about 64,000 (15%) were called active. This list was built around the results that the source calls inconclusive (neither active nor inactive); the mix of calls is not that of the screen. Calls follow the shape of the dose curve; as a rule, active = well fitted inhibition curve with a large enough effect; inconclusive = small, poorly fitted or top-dose-only effect; inactive = flat fitted curve, though single readings scatter. Potencies of inconclusive entries are left out as doubtful fits.
Assay: qHTS for Inhibitors of human tyrosyl-DNA phosphodiesterase 1 (TDP1): qHTS in cells in absence of CPT; also: nearly all actives have a fitted effect of over 55% in size
Details: DT40 Tdp1-/- hTDP1 cells, no CPT, ATP luminescence, 48 h; activity change, negative = growth inhibition: at 46.2 µM (top of the series) unless noted
Outline: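 DT40 Tdp1-/-;hTDP1 cells, no CPT (DMSO vehicle only), 400 cells/well; compounds pin-transferred; ≥48 hr, 37 °C; CellTiter-Glo 30 min RT dark, luminescence read.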
In the case of `O=S(=O)(NC1CCN(Cc2ccccc2)CC1)c1ccc(F)c(F)c1`, the Potency was “inactive”.
In the case of `Cc1ccc(S(=O)(=O)Nc2ccc3c(c2)nc(C)n3C)cc1`, the Potency was inconclusive [inhibitor, single point].
In the case of `COc1ccc2c(c1)C=C(C(=O)OCc1cccnc1)CO2`, the Potency was “inactive”.
With `COc1ccccc1CNC(=O)c1c(-c2ccccc2Cl)noc1C` the Potency was inconclusive [inhibitor, single point].
With `CCn1cc(-c2cc(C(=O)O)c3ccccc3n2)cn1` the Potency was inconclusive [inhibitor, partial curve].
In the case of `COC(=O)c1ccc(C23CC4(C2)[C@H](CN(CC2CCCCC2)[C@@H]4c2ccccc2)C3c2ccc(C(F)(F)F)cc2)cc1` (stereo partly drawn), the Potency was inconclusive [inhibitor, single point].
For `O=C(O)CCC(=O)OCCN(Cc1ccc(Oc2ccc([N+](=O)[O-])cc2)cc1)C(=O)C(Cl)Cl`, the Potency was inconclusive [inhibitor, single point].
For `COc1ccc(CCNc2nc3cc(OC)c(OC)cc3c3nc(-c4ccccc4)nn23)cc1OC`, the Potency was active: 2.91 µM.
In the case of `Cc1ccc(-c2csc(NC(=O)c3ccc([N+](=O)[O-])o3)n2)cc1`, the Potency was inconclusive [inhibitor, single point].
With `NC(=O)c1nsc(C(=O)N(c2ccc(Cl)cc2)C(C(=O)NCC2CCCO2)c2cccs2)c1N` (stereo not drawn) the Potency was inconclusive [inhibitor, single point].
With `COC(=O)c1cc(NC(=O)c2sc3ccccc3c2Cl)cc(C(=O)OC)c1` the Potency was inconclusive [inhibitor, partial curve, poor fit].
In the case of `Cc1cccc(N2CCN(c3ncnc4c3nc3n4CCCCC3)CC2C)c1` (stereo not drawn), the Potency was active: 9.2 µM.
In the case of `CCOc1ccc(-c2nc(CSCC(=O)NCc3ccc(C)cc3)c(C)o2)cc1`, the Potency was inconclusive [inhibitor, single point].
With `O=C(Cc1ccc(Cl)cc1)NNC(=S)NC(=O)c1cccs1` the Potency was “inactive”.
With `O=[N+]([O-])c1ccc(Cl)c(S(=O)(=O)Nc2cccc(S(=O)(=O)NC3=NCCC3)c2)c1` the Potency was “inactive”.
For `Cc1ccc(C)c(-n2nnc(-c3nc(-c4ccccc4C)no3)c2C)c1`, the Potency was active: 14.6 µM.
With `COc1ccc(-c2nn(-c3ccc(C)cc3)c3c2cnc2ccc(C)cc23)cc1OC` the Potency was “inactive”.
For `CC1(c2nnnn2Cc2ccccc2)CCC(=O)N1Cc1cccc(C(F)(F)F)c1` (stereo not drawn), the Potency was “inactive”.
For `Cc1cc(=O)nc2c3ccccc3n(CC(=O)NCCCN3CCOCC3)n12`, the Potency was inconclusive [inhibitor, single point].
In the case of `C(=N\NC1=Nc2cccc3cccc1c23)/c1ccccc1`, the Potency was inconclusive [inhibitor, single point].
In the case of `CCCCNC(=O)c1nc(-c2cccnc2OC)oc1-c1ccc(Cl)cc1`, the Potency was active: 23.1 µM.
In the case of `N[C@@H](CCC(=O)N[C@@H](CS)C(=O)NCC(=O)O)C(=O)O`, the Potency was “inactive”.
With `O=C1Nc2ccccc2OC1CC(=O)N1CCN(c2cccc(C(F)(F)F)c2)CC1` (stereo not drawn) the Potency was inconclusive [inhibitor, single point].
For `COc1ccc2c(c1)[nH]c1c(=O)n(/N=C/C3C(C)C=C(C)CC3C)c(=O)[nH]c12` (stereo not drawn), the Potency was inconclusive [inhibitor, single point].
For `CCN(CC)S(=O)(=O)c1cccc(NC(=O)C2SC(=Nc3ccc(C)cc3C)C(C(=O)NCC3CCCO3)=C2N)c1` (stereo not drawn), the Potency was active: 23.1 µM.
In the case of `COc1ccc(CN(Cc2ccc(OC)cc2)C(=O)c2cccs2)cc1`, the Potency was inconclusive [inhibitor, partial curve].
In the case of `Cc1cc(C(=O)Cn2cnc3cc([N+](=O)[O-])ccc3c2=O)c(C)n1CC1CCCO1` (stereo not drawn), the Potency was inconclusive [inhibitor, single point].
With `O=C(CCc1ccccc1)Nc1ccnn1C1CCN(Cc2ccc(OCCO)cc2)CC1` the Potency was “inactive”.
With `COc1ccc(CC(=O)Nc2cc(S(=O)(=O)N3CCCCC3)ccc2C)cc1OC` the Potency was active: 18.4 µM.
For `CS(=O)(=O)N(CCc1ccccc1)CC(=O)N1CCc2ccccc2C1`, the Potency was inconclusive [inhibitor, single point].
In the case of `COC(=O)c1ccc(-n2nnnc2SCc2ccccc2OC)cc1`, the Potency was inconclusive [inhibitor, partial curve, poor fit].
In the case of `O=C(Cc1ccc(Br)cc1)NCCc1ccc(Cl)cc1Cl`, the Potency was inconclusive [inhibitor, single point].
For `Cc1coc2cc3oc(=O)c(CCC(=O)NCc4ccccc4Cl)c(C)c3cc12`, the Potency was “inactive”.
In the case of `CN(CCOc1ccccc1)CC(=O)Nc1cccc(Br)c1`, the Potency was inconclusive [inhibitor, single point].
For `CCOC(=O)c1nn(-c2cccc(OC)c2)c(-c2ccccc2)c1C(=O)c1ccccc1`, the Potency was inconclusive [inhibitor, single point].
For `Cc1cc(O)ccc1N/C=C/c1onc(C)c1[N+](=O)[O-]`, the Potency was “inactive”.
In the case of `COc1ccc(C)cc1NCc1ccc(OC)c(C)c1OC`, the Potency was inconclusive [inhibitor, single point].
In the case of `CN(CC(=O)C(C(N)=O)c1ccccc1)c1ccccc1` (stereo not drawn), the Potency was “inactive”.
With `CCn1cc(S(=O)(=O)N2CCCC2)cn1` the Potency was “inactive”.
For `Cc1ccc(C)c(NC(=S)N2CCC(c3nc4ccccc4s3)CC2)c1`, the Potency was “inactive”.
For `O=C(O)c1cccc(-n2cnc3cccnc32)c1`, the Potency was “inactive”.
With `Cc1cc[n+](CC(=O)Nc2cc(C(F)(F)F)ccc2Cl)cc1` the Potency was “inactive”.
In the case of `Cc1cc(S(=O)(=O)N2CCCC2)ccc1OCC(=O)N1CCCCC1`, the activity change, negative = growth inhibition was inconclusive: -32.1% [inhibitor].
In the case of `COc1ccc(NC(=O)CN(C)C2CCCCC2)c([N+](=O)[O-])c1`, the Potency was inconclusive [inhibitor, partial curve].
For `O=C(NCC(c1cccnc1)N1CCN(Cc2ccccc2)CC1)C(=O)Nc1cccc(Cl)c1` (stereo not drawn), the Potency was active: 13 µM.
In the case of `O=C(c1ccc(S(=O)(=O)Nc2cccc(C(F)(F)F)c2)cc1)N1CCN(c2ccccc2O)CC1`, the Potency was active: 23.1 µM.
In the case of `Clc1nc(-c2ccccc2)cc(-c2ccc(Br)cc2)n1`, the Potency was inconclusive [inhibitor, partial curve, poor fit].
In the case of `Cc1ccnn1CC(=O)N1CCOc2c(cc(-c3ncc(C(F)(F)F)cc3Cl)cc2OCC2CCCO2)C1` (stereo not drawn), the Potency was “inactive”.
In the case of `CCC(C(=O)NC1CCCCC1)n1c(SCc2cccc(C)c2)nc2ccncc21` (stereo not drawn), the Potency was inconclusive [inhibitor, single point].
In the case of `COCCNc1nc(-c2cccc(OC)c2)nc2ccccc12`, the Potency was active: 6.51 µM.
For `O=C(CCc1ccccc1)N1CCN(c2ccccn2)CC1`, the Potency was “inactive”.
For `CCCc1cc(N2CCCC(C(=O)NCC)C2)n2ncnc2n1` (stereo not drawn), the Potency was “inactive”.
For `Cc1ccc(C)c2c1cc(C)c1nnc(SCC(=O)NCc3ccc4c(c3)OCO4)n12`, the Potency was inconclusive [inhibitor, partial curve, poor fit].
For `CN1C(=S)SC(C)(C)C1N(O)C(=O)Nc1ccc(Cl)cc1` (stereo not drawn), the Potency was inconclusive [inhibitor, single point].
With `O=C(c1cc(C2CC2)nn1-c1ccccc1)N1CCN(S(=O)(=O)c2cccc(F)c2)CC1` the Potency was “inactive”.
With `COc1ccc2c(c1)CCC1(C)CC(=O)C(Br)=C21` (stereo not drawn) the Potency was inconclusive [inhibitor, single point].
In the case of `Cc1ccc(-c2cc(C(=O)NC3CCCC3)no2)cc1`, the activity change, negative = growth inhibition was inconclusive: -32.1% [inhibitor].
In the case of `CCN(CC)S(=O)(=O)c1cc(C(=O)O)ccc1OC`, the Potency was “inactive”.
For `COc1ccccc1C(=O)NCCC(=O)NNC(=O)c1ccccc1O`, the Potency was inconclusive [inhibitor, single point].
In the case of `CC1(C)Nc2ccccc2N(Cc2ccc([N+](=O)[O-])cc2)C1=O`, the Potency was “inactive”.
For `COc1cccc(N2CCN(c3ccc4nnc(CCC(=O)Nc5ccc(OC)c(OC)c5)n4n3)CC2)c1`, the Potency was inconclusive [inhibitor, single point].
For `O=C(CCCN1C(=O)c2cccc3cccc(c23)C1=O)N1CCN(c2ccccc2O)CC1`, the Potency was active: 14.6 µM.
With `COCc1c(Br)c(C)nc2sc3c(=O)n(-c4cccc(Br)c4)nnc3c12` the Potency was “inactive”.
In the case of `O=C(NC1CC1)C1=C[C@H](c2ccc(C(F)(F)F)cc2)C[C@H](OCc2ccc(CO)cc2)O1`, the Potency was “inactive”.
In the case of `N#Cc1ccccc1CSc1nnc2ccc3ccccc3n12`, the Potency was inconclusive [inhibitor, single point].
For `CC(=O)N1CCN(c2ccc(S(=O)(=O)NCCN(C(C)C)C(C)C)cc2[N+](=O)[O-])CC1`, the Potency was inconclusive [inhibitor, single point].
For `N=c1c2ccccc2nnn1-c1ccccc1[N+](=O)[O-]`, the activity change, negative = growth inhibition was inconclusive: -36.6% [inhibitor].
For `Cc1cccc(Nc2nnc(SCC3CCCCO3)s2)c1C` (stereo not drawn), the Potency was inconclusive [inhibitor, partial curve, poor fit].
With `CCN1C(=O)c2ccccc2S(=O)(=O)c2ccc(C(=O)NCc3ccc(OC)cc3)cc21` the Potency was inconclusive [inhibitor, single point].
With `CC(C)N1C(=O)C2C(c3ccccc3O)NC(C)(C(=O)O)C2C1=O` (stereo not drawn) the Potency was “inactive”.
In the case of `COc1ccc(C)cc1NC(=O)CCCN1C(=O)CN(C)C1=O`, the Potency was “inactive”.
For `COc1ccc(S(=O)(=O)N2CCCCC2)cc1NC(=O)CCNC(=O)c1ccc(Br)cc1`, the Potency was inconclusive [inhibitor, single point].
For `CCc1ccc(NC(=O)N(CCN2CCOCC2)Cc2ccc3c(c2)CCCN3CC)cc1`, the Potency was inconclusive [inhibitor, single point].

From PubChem BioAssay AID686978 (National Center for Advancing Translational Sciences (NCATS), 2013)
% is scaled to controls: 0 for no effect and ±100 for the full control effect; potency is read from the fitted curve at half-maximal effect; tags tell the direction and shape of the fitted curve.
